Laboratory results as given in paper PMC10320511.
These are yes or no findings as the source states them, for the method shown. Binding seen in cells or lysates may run through a third protein. Some results given as binding are weak or reduced against the parent protein; the word gives no strength. Where a sequence is shown, tags or fusion partners need not be part of it.

Sequences of proteins named here, by UniProt entry; tags and fusion partners are left off.
UniProt Q01371: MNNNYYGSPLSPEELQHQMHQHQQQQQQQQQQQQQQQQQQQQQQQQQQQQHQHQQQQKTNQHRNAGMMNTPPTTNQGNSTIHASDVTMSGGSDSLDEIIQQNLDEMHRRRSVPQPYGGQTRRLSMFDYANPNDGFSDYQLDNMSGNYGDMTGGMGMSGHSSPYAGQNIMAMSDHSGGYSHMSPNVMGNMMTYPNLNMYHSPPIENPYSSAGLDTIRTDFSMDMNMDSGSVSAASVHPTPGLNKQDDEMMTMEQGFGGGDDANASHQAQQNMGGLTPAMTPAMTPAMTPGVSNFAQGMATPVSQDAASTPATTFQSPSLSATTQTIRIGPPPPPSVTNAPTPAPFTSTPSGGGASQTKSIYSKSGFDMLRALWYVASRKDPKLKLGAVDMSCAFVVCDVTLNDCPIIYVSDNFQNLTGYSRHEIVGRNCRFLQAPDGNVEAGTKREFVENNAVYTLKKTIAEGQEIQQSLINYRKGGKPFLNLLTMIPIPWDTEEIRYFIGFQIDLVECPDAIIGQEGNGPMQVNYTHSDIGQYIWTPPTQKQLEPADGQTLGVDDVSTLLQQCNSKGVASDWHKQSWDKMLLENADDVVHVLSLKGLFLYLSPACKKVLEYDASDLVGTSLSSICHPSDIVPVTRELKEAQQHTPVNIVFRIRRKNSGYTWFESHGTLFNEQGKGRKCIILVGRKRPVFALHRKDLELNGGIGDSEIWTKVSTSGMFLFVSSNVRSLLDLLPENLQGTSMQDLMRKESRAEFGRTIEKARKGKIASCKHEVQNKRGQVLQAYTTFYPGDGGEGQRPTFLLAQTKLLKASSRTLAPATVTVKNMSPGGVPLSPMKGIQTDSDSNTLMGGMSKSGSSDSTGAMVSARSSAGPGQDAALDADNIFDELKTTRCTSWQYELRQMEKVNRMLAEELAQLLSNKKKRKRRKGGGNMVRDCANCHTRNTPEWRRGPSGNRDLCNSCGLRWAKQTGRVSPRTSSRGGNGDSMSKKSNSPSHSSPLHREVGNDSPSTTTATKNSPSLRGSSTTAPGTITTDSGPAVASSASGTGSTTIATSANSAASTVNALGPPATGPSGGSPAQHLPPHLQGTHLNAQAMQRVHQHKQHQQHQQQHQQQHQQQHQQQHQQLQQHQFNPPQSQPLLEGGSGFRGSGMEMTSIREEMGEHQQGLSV

Assays:
Assay in all cases: co-IP; V5H6-tagged FRQ (wild type or mutant) pulled down with V5 agarose from Neurospora lysate (cultures in the light, 25 °C); 50 mM Hepes pH 7.4, 137 mM NaCl, 10% glycerol, 0.4% NP-40; 4 °C, 2 h; Western blot with FRQ, FRH, WC-1 and WC-2 antibodies
[1] = target: T1, FRQ 559–989, V5H6-tagged (Neurospora crassa) (UniProt P19970)
T1 sequence: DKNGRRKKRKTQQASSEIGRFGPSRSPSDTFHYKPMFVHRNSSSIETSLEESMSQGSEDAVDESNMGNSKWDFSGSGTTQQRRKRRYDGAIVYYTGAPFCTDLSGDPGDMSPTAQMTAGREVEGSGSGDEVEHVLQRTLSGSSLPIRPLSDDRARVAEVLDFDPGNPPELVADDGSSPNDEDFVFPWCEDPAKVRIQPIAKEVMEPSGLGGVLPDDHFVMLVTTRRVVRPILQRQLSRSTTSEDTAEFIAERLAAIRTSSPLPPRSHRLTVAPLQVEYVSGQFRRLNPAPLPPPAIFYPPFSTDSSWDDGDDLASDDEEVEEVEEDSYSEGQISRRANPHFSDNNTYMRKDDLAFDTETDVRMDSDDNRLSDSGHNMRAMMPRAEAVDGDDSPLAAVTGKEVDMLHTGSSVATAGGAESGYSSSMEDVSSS

[2] = target: T2, FRQ D660E, V5H6-tagged (Neurospora crassa) (UniProt P19970)
T2 sequence: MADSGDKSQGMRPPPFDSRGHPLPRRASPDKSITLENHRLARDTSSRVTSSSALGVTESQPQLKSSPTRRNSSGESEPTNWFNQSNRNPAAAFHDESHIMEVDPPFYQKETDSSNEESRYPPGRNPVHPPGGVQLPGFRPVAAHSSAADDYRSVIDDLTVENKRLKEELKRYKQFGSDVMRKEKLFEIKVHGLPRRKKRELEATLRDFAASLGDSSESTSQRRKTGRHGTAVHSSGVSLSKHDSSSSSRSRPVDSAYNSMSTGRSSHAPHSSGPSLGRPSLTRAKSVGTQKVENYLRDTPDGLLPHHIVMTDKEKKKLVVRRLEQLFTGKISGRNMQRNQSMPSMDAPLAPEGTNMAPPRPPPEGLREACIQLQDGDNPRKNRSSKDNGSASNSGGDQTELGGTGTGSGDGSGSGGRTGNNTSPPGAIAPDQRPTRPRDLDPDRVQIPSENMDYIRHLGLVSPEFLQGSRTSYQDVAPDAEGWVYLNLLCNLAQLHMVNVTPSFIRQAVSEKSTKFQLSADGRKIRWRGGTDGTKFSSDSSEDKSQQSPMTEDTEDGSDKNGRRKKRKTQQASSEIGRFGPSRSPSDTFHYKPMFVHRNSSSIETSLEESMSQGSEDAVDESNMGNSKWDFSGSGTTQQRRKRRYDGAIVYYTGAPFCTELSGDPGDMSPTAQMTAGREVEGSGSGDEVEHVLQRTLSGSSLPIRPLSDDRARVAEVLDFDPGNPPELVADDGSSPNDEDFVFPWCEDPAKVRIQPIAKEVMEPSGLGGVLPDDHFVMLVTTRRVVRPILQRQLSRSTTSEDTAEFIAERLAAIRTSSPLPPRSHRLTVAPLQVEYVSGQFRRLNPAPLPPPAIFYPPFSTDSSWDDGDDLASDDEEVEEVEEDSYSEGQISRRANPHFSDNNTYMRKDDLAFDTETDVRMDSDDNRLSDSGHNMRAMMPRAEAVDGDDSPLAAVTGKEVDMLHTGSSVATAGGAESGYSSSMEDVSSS

[3] = target: T3, FRQ Δ435–481, V5H6-tagged (Neurospora crassa) (UniProt P19970)
T3 sequence: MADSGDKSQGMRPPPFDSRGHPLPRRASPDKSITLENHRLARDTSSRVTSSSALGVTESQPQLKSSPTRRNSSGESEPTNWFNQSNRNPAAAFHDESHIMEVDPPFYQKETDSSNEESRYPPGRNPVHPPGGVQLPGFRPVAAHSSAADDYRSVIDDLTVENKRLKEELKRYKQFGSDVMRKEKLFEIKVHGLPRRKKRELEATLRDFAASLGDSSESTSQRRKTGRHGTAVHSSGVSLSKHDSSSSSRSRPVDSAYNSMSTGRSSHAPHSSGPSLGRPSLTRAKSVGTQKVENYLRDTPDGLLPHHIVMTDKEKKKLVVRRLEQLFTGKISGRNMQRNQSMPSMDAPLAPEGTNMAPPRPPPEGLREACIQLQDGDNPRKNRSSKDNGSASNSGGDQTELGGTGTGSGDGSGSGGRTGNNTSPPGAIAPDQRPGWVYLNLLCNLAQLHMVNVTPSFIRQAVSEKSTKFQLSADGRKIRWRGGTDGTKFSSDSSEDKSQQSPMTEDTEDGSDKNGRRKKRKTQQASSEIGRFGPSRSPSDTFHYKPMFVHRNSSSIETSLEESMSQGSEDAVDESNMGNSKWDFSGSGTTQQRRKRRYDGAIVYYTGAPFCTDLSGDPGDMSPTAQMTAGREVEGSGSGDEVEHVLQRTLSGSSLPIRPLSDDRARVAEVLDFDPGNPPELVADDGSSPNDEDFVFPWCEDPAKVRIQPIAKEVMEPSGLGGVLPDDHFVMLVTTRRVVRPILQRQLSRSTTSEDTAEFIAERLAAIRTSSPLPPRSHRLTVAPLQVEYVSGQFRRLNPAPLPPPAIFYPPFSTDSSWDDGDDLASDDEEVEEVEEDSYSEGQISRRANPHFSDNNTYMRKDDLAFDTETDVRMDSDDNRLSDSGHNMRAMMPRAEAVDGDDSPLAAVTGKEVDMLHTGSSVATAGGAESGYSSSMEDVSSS

Substance: White Collar-1 (WC-1) (from UniProt Q01371 1-1167)
- binding [1]: no binding
- binding [2]: no binding
- binding [3]: binds
